In ChEMBL document CHEMBL1201862, “PubChem BioAssay data set” (2004):

System: NCI-H322M
Experiment: inhibition of tumour cell growth, NCI panel, 48 h

| Compound | GI50 |
| --- | --- |
| CC(C)c1ccc2c(c1)CCC1C(C)(CN)CCCC21C (stereo not drawn) | inactive: 1.71 µM |
| Cc1c2ccccc2c(CSC(=N)N)c2ccccc12 | active: 0.217 µM |
| COc1cc(/C=C2\CCC(C)C3=C(c4cc(OC)c(OC)c(OC)c4)C(C#N)=C(N)OC32)cc(OC)c1OC (stereo not drawn) | inactive: 3.83 µM |
| O=C1c2cccc([N+](=O)[O-])c2C(=O)N1Cc1ccccc1 | inactive: > 100 µM |
| CCOc1cc(NC(C)=O)ccc1C(=O)NN1C(=O)CSC1c1ccccc1 (stereo not drawn) | inactive: > 100 µM |
| O=c1[nH]c(=O)n(C2CC(O)C(CO)O2)cc1OCC1CCCCC1 (stereo not drawn) | inactive: > 100 µM |
| COc1c(C(C)C)cc2c3c1OC(=O)[C@@]31CCCC(C)(C)C1CC2 (stereo partly drawn) | inactive: 55.1 µM |
| COc1ccc(C(=O)O)c(Cc2ccc3ccccc3c2)c1 | inactive: > 100 µM |
| C#CC[C@@H]1C(=O)N(Cc2ccc(OC)cc2)[C@@H](C(C)C)C(=O)N1Cc1ccc(OC)cc1 | inactive: 59.3 µM |
| Cc1ccc(S(=O)(=O)N(CCNC(=O)c2cccc(O)c2O)c2cc3c4c(c2)Oc2cccc5c2C4(C)c2c(cccc2O3)O5)cc1 | inactive: > 100 µM |
| O=c1[nH]nc(Cc2ccccc2)n1/N=C\c1ccccc1 | inactive: > 100 µM |
| CC1(c2cccc3c2C2(O)C=CC4(CCC32)OCCO4)OCCO1 (stereo not drawn) | inactive: > 100 µM |
| NC(=O)/C=c1/c2ccccc2n2nc3ccccc3c12 | inactive: 29.4 µM |
| N#Cc1c(-c2ccc(Cl)cc2)c2c([nH]c1=O)-c1ccccc1SC2 | inactive: 37.2 µM |
| Cc1cc(/N=N/c2ccc(/N=N/c3c(O)c(S(=O)(=O)O)cc4cc(S(=O)(=O)O)ccc34)cc2C)ccc1/N=N/c1ccc2cc(S(=O)(=O)O)cc(S(=O)(=O)O)c2c1 | inactive: > 78.2 µM |
| CC(C)OP(=O)(OC(C)C)C(C)(C)O | inactive: > 100 µM |
| COC(=O)c1c[nH]c2nc(N3CCOCC3)nn2c1=O | inactive: > 100 µM |
| N#C/C(=C\c1ccccc1)C(NO)Nc1ccccc1 (stereo not drawn) | inactive: > 100 µM |
| Cc1ccc(N2C(=O)C3C=CC(n4[nH]c(=O)n(Cc5ccccc5)c4=O)CC3C2=O)cc1 (stereo not drawn) | inactive: > 100 µM |
| CCCCCCCCCCNC(=S)OC | inactive: > 100 µM |
| Cc1nc(N)c(N2CCN(Cc3ccccc3)CC2)c(O)n1 | inactive: > 100 µM |
| COc1c2c(cc3c1C(=O)Cc1ccc4c(c1CN(C)CC3)OCO4)OCO2 | inactive: 80.9 µM |
| Cc1nc2cc(F)c(F)cc2[nH]c1=O | inactive: > 100 µM |
| Nc1ccc(C(=O)NN2C(=O)C(Cl)C2c2cccc([N+](=O)[O-])c2)cc1 (stereo not drawn) | inactive: 15.3 µM |
| CC1OC(OC2C(OC3CCC4(C)C(CCC5(C)C4CC=C4C6CC(C)(C)CCC6(C(=O)O)CCC45C)C3(C)CO)OCC(O)C2O)C(O)C(O)C1O (stereo not drawn) | inactive: 18.7 µM |

| Compound | GI50 |
| --- | --- |
| CCN(CC)CCN1CCc2c([nH]c3ccccc23)C1c1cccnc1 (stereo not drawn) | inactive: > 100 µM |
| CC1CCCc2c(C#N)c(N)nc(-c3ccc(Cl)cc3)c21 (stereo not drawn) | inactive: 19.8 µM |
| CC(C)(C)C(=O)C(CC(=O)c1ccccc1)C(=O)C(C)(C)C | inactive: > 100 µM |
| C=CCCCN1CCCCC1=S | inactive: > 100 µM |
| C1=CC2C=CC(C=C1)P2c1ccccc1 (stereo not drawn) | inactive: > 100 µM |
| CCN(CC)CCNc1ccc2nnn3c4ccc(OC(C)=O)cc4c(=O)c1c23 | inactive: 3.46 µM |
| O=C1NC(Cc2ccc(O)cc2)C(=O)N2CCCC12 (stereo not drawn) | inactive: > 100 µM |
| CCOC(=O)NC(=O)c1cn(CCN2CCN(c3ncnc4[nH]cnc34)CC2)c(=O)[nH]c1=O | inactive: > 100 µM |
| O=C(c1cc(Cl)cc(Cl)c1)N(C(=O)N1CCN(c2ccccc2)CC1)c1ccccc1 | inactive: 67.9 µM |
| O=C(CCc1n[nH]c(=S)o1)Nc1cc(Cl)c(Cl)cc1Cl | inactive: 55.7 µM |
| COc1ccc(Cc2c(-c3ccc(C)cc3)n[nH]c(=O)c2C2C(=O)N(c3ccccc3)N=C2c2ccccc2)cc1 (stereo not drawn) | inactive: 22.9 µM |
| C=C1CC2CC(=O)C(O)C(C1)C2 (stereo not drawn) | inactive: > 100 µM |
| Nc1ccc(/C=C/c2ccc3cccnc3c2)cc1 | inactive: > 100 µM |
| O=[N+]([O-])C=C1c2ccccc2-c2ccccc21 | inactive: 17.6 µM |
| Cc1cc2c(=O)c3ccccc3[nH]c2c(C(=O)O)c1C | inactive: > 100 µM |
| C1CCC(N=C2N(C3CCCCC3)C(=NC3CCCCC3)N2C2CCCCC2)CC1 | inactive: > 100 µM |
| Cc1cc2[nH]c(=NS(=O)(=O)c3cc(C)c(Cl)cc3S)[nH]c2cc1C | inactive: 40.1 µM |
| O=C1N[C@H]2c3c(Cl)sc(Cl)c3[C@@H](O)[C@H]2O1 | inactive: > 100 µM |
| C/C(=C\CNc1ncnc2c1ncn2C1CCCCO1)COP(=O)(O)O (stereo not drawn) | inactive: > 100 µM |
| O=[N+]([O-])c1cc(C(F)(F)F)ccc1S(=O)(=O)N[C@@H]1CCCC[C@H]1NS(=O)(=O)c1ccc(C(F)(F)F)cc1[N+](=O)[O-] | inactive: 22.1 µM |
| CC(C)OC(=O)C1=C2c3ncccc3C(=O)N2[C@@H](Cl)[C@H](Cl)[C@H]1Cl | inactive: > 100 µM |
| O=[N+]([O-])c1ccccc1S(=O)(=O)N1CCCc2cc(Cl)ccc21 | inactive: 28 µM |
| CN(C)CCN(C)CC1COC(C)(C)O1 (stereo not drawn) | inactive: > 100 µM |
| O=[N+]([O-])c1cccc2nc3ccccc3c(NCCCCNc3c4ccccc4nc4cccc([N+](=O)[O-])c34)c12 | active: 0.113 µM |
| CCCCN(CCCC)C(=O)C(=O)C(C)C(=O)CC (stereo not drawn) | inactive: > 100 µM |

| Compound | GI50 |
| --- | --- |
| C=CCN(C(=O)CNC(=O)C(F)(F)F)c1cc(OCc2ccccc2)c2c(c1)c(C)cn2S(=O)(=O)c1ccccc1 | inactive: > 100 µM |
| Clc1ccc2cccc3c2c1C1OC3c2ccccc21 (stereo not drawn) | inactive: > 100 µM |
| NC(Cc1c2ccccc2cc2ccccc12)C(=O)O (stereo not drawn) | inactive: 63.5 µM |
| O=C1C(Cl)=C(N2CCSCC2)C(=O)c2c(O)ccc(O)c21 | active: 0.644 µM |
| O=c1c2cc(Br)cc(Br)c2[nH]c(=S)n1-c1ccc(/N=N/c2ccc(O)c3cccnc23)cc1 | inactive: > 100 µM |
| CCOC1Oc2ccccc2-c2nc(N)ncc21 (stereo not drawn) | inactive: > 100 µM |
| CCOC(=O)/C=C(/C(=O)OCC)n1cc(C)c(=O)n(Cc2cnnn2COCCOC(C)=O)c1=O | inactive: > 100 µM |
| Cc1ccc(C2=CC(=O)/C(=C\C(=O)c3ccc(Br)cc3)O2)c(C)c1 | inactive: 33.9 µM |
| COC(=O)C(CCCCCCCC(C(=O)OC)C1=Nc2nnc(N)n2C1=O)C1=Nc2nnc(N)n2C1=O (stereo not drawn) | inactive: > 100 µM |
| COc1ccc(-c2c3c(n(C4OC(CO)C(O)C(O)C4O)c(=S)c2C#N)CCCC3)cc1 (stereo not drawn) | inactive: > 100 µM |
| NC(=O)c1nc(-c2ccc(Cl)c(Cl)c2)nc2ccccc12 | inactive: > 30.3 µM |
| COc1cc(Cl)c2c3c(c(C(C)=O)oc13)CCC2 | inactive: > 100 µM |
| CC(C)(CN1CCCCC1)C(=O)/C=C/c1c(Cl)cccc1Cl | inactive: 1.97 µM |
| CC1CCc2c(c(CC3CC(=O)NC(=O)C3)nn2-c2ccccc2)C1 (stereo not drawn) | inactive: > 100 µM |
| Clc1ccc(NCc2nnc(CCCCCCCCc3nnc(CNc4ccc(Cl)cc4)o3)o2)cc1 | inactive: > 100 µM |
| C(=C/c1nnnn1-c1ccccc1)/Nc1ccccc1 | inactive: 49.4 µM |
| CN1CCN(CC(=O)N2CCCn3c2nc2ccccc2c3=O)CC1 | inactive: > 100 µM |
| Oc1ccc(Cl)cc1C1=NC(NCNC2=NC(c3ccccc3)CC(c3cc(Cl)ccc3O)=N2)=NC(c2ccccc2)C1 (stereo not drawn) | inactive: 41.4 µM |
| CCCCCCCCCCCCCCC(C(=O)[O-])[n+]1ccccc1 (stereo not drawn) | inactive: > 100 µM |
| CCOC(=O)c1csc(NC(=O)CCN2CCCCC2)n1 | inactive: > 100 µM |
| CC1(C)OCC(CO)(CO)CO1 | inactive: > 100 µM |
| COC(=O)C1CN=CN1CCc1ccccc1 (stereo not drawn) | inactive: > 100 µM |
| O=c1[nH]nc(-c2ccccc2)n1-c1ccncc1 | inactive: > 100 µM |
| CC(=O)OCc1ncccc1C(OC(C)=O)OC(C)=O | inactive: > 100 µM |
| COc1ccccc1NC(=O)CC(=O)N1N=C(C)C(/N=N/c2ccc(S(N)(=O)=O)cc2)C1=O (stereo not drawn) | inactive: > 100 µM |

| Compound | GI50 |
| --- | --- |
| CN1C2CCC1CC(=CCOC(c1ccc(F)cc1)c1ccc(F)cc1)C2 | inactive: 14.8 µM |
| COC(=O)c1nc(Cl)nc(Cl)c1Cl | inactive: 44.5 µM |
| ClC1c2ccccc2C2(c3ccccc3)OOC1(c1ccccc1)O2 (stereo not drawn) | inactive: 5.18 µM |
| Nc1ncnc2c1ncn2C1OC(CSCC(F)(F)F)C(O)C1O (stereo not drawn) | inactive: > 100 µM |
| CCCO/S(=N\S(=O)(=O)c1ccccc1)c1ccccc1[N+](=O)[O-] (stereo not drawn) | inactive: > 100 µM |
| COC(CNC(=O)C(C)NC(=O)C(C)NC(=O)c1ccccc1)OC (stereo not drawn) | inactive: > 100 µM |
| C[C@]12CCC(=O)C=C1CC[C@@H]1[C@@H]2CC[C@]2(C)C(=O)/C(=C/c3ccncc3)C[C@@H]12 | inactive: 11.6 µM |
| Nc1ccccc1[S+]([O-])c1ccccc1 (stereo not drawn) | inactive: > 100 µM |
| O=[N+]([O-])c1ccc2c(c1)Sc1ccccc1N2CCCCCl | inactive: > 100 µM |
| CC1(C)C(CBr)=[N+]([O-])C(C)(C)N1O | inactive: > 10 µM |
| CCCCCCCCCCCCC(Br)C(=O)NCC(N)=O (stereo not drawn) | inactive: 14.8 µM |
| COC1CC(N)(c2ccccc2)C(O)C(C)O1 (stereo not drawn) | inactive: > 100 µM |
| CCCn1cnc2c(/N=N/O)ncnc21 | inactive: > 100 µM |
| CN1CC[C@]23c4c5ccc(O)c4OC2c2[nH]ncc2C[C@H]3[C@H]1C5 (stereo partly drawn) | inactive: > 100 µM |
| C=C(CCCCC)CN1CCCC1C(C)=O (stereo not drawn) | inactive: 39.4 µM |
| COCC(=O)OC1CCn2c1nc1c2C(=O)C(C)=C(NC(C)=O)C1=O (stereo not drawn) | inactive: 18.5 µM |
| Nc1ccc2[nH]c(C(=O)N3CC(CCl)c4c3cc(N)c3ccccc43)cc2c1 (stereo not drawn) | active: 0.0153 µM |
| O=C1C(Cl)=C(NCCN2CCOCC2)C(=O)c2ncccc21 | inactive: 1.44 µM |
| ONc1ncnc2[nH]cnc12 | inactive: > 100 µM |
| CC(=O)Nc1ccc(-c2nc3ccccc3s2)cc1O | inactive: 56.5 µM |
| O=C(/C=C/c1ccccc1)CCN1CCOCC1 | inactive: 22.7 µM |
| CC(N)(Cc1c[nH]c2ccccc12)C(=O)O (stereo not drawn) | inactive: > 100 µM |
| NS(=O)(=O)c1ccc(/C=C/c2ccc(O)c(O)c2)cc1 | inactive: 44.6 µM |

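All cell lines were grown in 96-well plates and treated with compound for 48 hours. GI50 is the concentration that inhibits growth by half.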 The source made the active and inactive calls. No stated cut-off is given here; in the data, active = GI50 up to about 1.1 µM and inactive = higher.
